According to the RNAGym collection of RNA variant scans (doi:10.7554/elife.90254):
Read counts are not given, so values of variants with three or more changes are uncertain.

B1: LINE1-mini (parent)
chain: GGCAGAGCUCAACACAGCGUGGCAAAGUGGCUGUGGCUAGACUGCC

Variants of: B1
Experiment: self-cleavage, relative activity (ratio to wild type); higher = more cleavage; in vitro, sequencing; the parent is a self-cleaving ribozyme

Variant | self-cleavage
C3A U9C C37A | 0.05
C3A G33C G44A | 0.07
C3A U28A C31U U34G | 0.01
C3A G7U G17U U34G | 0.14
C3A U9C G40C | 0.03
C3A C37U U43A | 0.19
C3A U28G C45A | 0.25
C3A U28G C45G | 0.35
C3A C31U G44U C45U C46U | 0.13
C3A G7C A16U | 0.07
C3A G22A G35U | 0.17
C3A G5U G29C U34A G40A | 0.04
C3A U34G C37G | 0.06
C3A U28C G30U C37A | 0.03
C3A G7U G27U G44U | 0.29
C3A G22C C42U C45G | 0.07
C3A C23U G27C G33C | 0.14
C3A U20G U28G G36U U43C G44C | 0.02
C3A U20A C42A | 0.1
C3A G21A C23G | 0.47
C3G A6C A16C G27C C45U | 0.02
C3A U9A G22C C31G | 0.19
C3A G7A G19U G36A | 0.55
C3A C31A U32C C46U | 0.12

Variant | self-cleavage
C3A C31U G36C | 0.09
C3A G33U C37U | 0.41
C3A U9C A14G | 0.04
C3A G7C A39U | 0.22
C3A C15G G29A | 0.07
C3A G5C U34A | 0.12
C3A U20C A25U C46A | 0.04
C3G A4C C23U C42G | 0.06
C3A G7C C31A U32G | 0.03
C3A C31U G40U | 0.08
C3G A4U G5A A11U | 0.03
C3A C15A G19U U20C | 0.13
C3G A4G A6C | 0.38
C3A C18U G21U G40A G44U | 0.06
C3A G17C A39C | 0.42
C3A C18G G19C A26C | 0.39
C3A G7U C10U G22A | 0.07
C3A C37A A39G | 0.11
C3A U9A U28G G29U C42A | 0.4
C3A G5U G7C | 0.11
C3A G7C C13A A26G G40U | 0.03
C3G A4G A12G C13A | 0.1
C3A G7U C23U | 0.41
C3A G7U C23A | 0.55

Variant | self-cleavage
C3A G5C G30A A39C C42U | 0.09
C3A G22U G30U | 0.92
C3A G5A C42G | 0.11
C3A G40U C42A | 0.27
C3A U34C C45A | 0.04
C3A G21C G30C C31G | 0.07
C3A U9G G17C U20C G36A | 2.23
C3A G5U C13A C45G | 0.18
C3A G7U G29U G35U | 0.04
C3A G19U C37U | 0.55
C3G A4G G36C | 0.18
C3A G5U C10G G33C C37U | 0.03
C3A U9A C15U G22C C31A | 0.06
C3A G5C A11U G27A U38A | 0.02
C3A U20G U32A C42U | 0.1
C3A U34A G36U G40A | 0.01
C3A G7A U9G G22U G27A G33C | 0.06
C3G A4U C8A G19A | 0.88
C3A G22U A25G C42U | 0.06
C3G A4U C31G | 0.08
C3A C23G U32G | 0.19
C3A G5A G27U G35C | 0.26
C3G A6G G17U A25C U38A C42G | 0.08
C3A G5C C10A A14U | 0.06

Variant | self-cleavage
C3A G5U A6C C15U A25G G27C A39U | 0.17
C3A C23U G30U G33C | 0.26
C3A G5U C8U C46A | 0.08
C3A U20C U32C C46A | 0.1
C3A G36C C37G | 0.47
C3A G33C A39G | 0.14
C3A G40A C45A | 0.13
C3G A4U A6C C10U U20G G44U | 0.02
C3A G22A U28A C31A | 0.31
C3A G21C U32G G44U | 0.23
C3A G33A C45A | 0.09
C3A G7A A14G A26U C45U | 0.76
C3A G7C C13A A39G U43A G44U | 0.26
C3A C23G G33A C45A | 0.15
C3A C23G G40A | 0.12
C3A G21U A26G U38G | 0.17
C3G A4G G33U | 0.13
C3A G5A A12U U32A C42U | 0.1
C3A G19A A24C | 0.13
C3G A4G C13A G29U C37A G40C | 0.1
C3A G7U G27U C46A | 0.12
C3A G5C C8G | 0.06
C3A C15A G19U G27A G44A | 0.22
C3A G7C C18A U20A G44U | 0.04

Variant | self-cleavage
C3A G7A U32A | 0.03
C3G A4G U20G | 0.05
C3A G7C C10G G40U | 0.02
C3A U9A C31G | 0.07
C3G A4C G27U A39U | 0.2
C3A U32G G40A C42G | 0.17
C3A G27A C45A | 0.5
C3A G35C A39U | 0.16
C3A U20G U38A G44A | 0.12
C3A G30C C31G A41G C46U | 0.09
C3A G17U C18U G36U | 0.25
C3A C15U G40C | 0.22
C3G A4U A11G | 0.03
C3A G7C C13G A41C | 0.02
C3A G17U G44A | 0.1
C3A C15A C23U G29U | 1.29
C3A G5A U32C | 0.49
C3A G35A C45G | 0.12
C3A C15A A24U G29A C37A | 0.06
C3A G22U G27U G30U | 0.9
C3G A4G G22A | 0.1
C3A G7A C10A G17U | 0.06
C3A G5U C37U U38C | 0.12
C3A G5A G17C G44C | 0.05

Variant | self-cleavage
C3A G19U C23G G44C | 0.84
C3A G5A A6U A11C C15A G27C U34A | 0.02
C3A G5A A12C C15G G21U A25U | 0.04
C3A G5U C13A G22U G29U A39U C46U | 0.34
C3A C13U U28A G29A U32A | 0.24
C3A G5U A25U A26G C46A | 0.05
C3A G33A C46G | 0.25
C3A U28A C42U | 0.24
C3A C18U C37U | 0.32
C3A U9G G30A A41U | 0.05
C3A G27U G36A | 0.63
C3A G7U C45A | 0.3
C3G A4U G44U | 0.12
C3A G5A G7A G29U G33A U43G | 0.04
C3A C15A C23U | 0.31
C3A U9A G29U G35U | 0.12
C3A G5C C42U | 0.06
C3G A4U C42U | 0.04
C3A G5A C15A G21C U38C C45A | 0.06
C3A C37U G40A | 0.39
C3A G19U A41U | 0.18
C3A U9G C23U G27A C42U C45A | 0.04
C3A G36U U43A | 0.27
C3A G5C U20C G29U G44C | 0.05

Variant | self-cleavage
C3G A4C C8U A25C G27C U43C | 0.06
C3A U34C C37A G40A | 0.09
C3A U9G G29U C46A | 1.03
C3A G5A A11G C37G C45U | 0.03
C3A G17U A24C U32G C42G | 0.12
C3A G19U U34A | 0.15
C3A U9A G27C | 0.26
C3A C15A A25U U32G U43C | 0.12
C3A C37G G44A C46A | 0.06
C3A G29A U38G | 0.18
C3A U9C A24C | 0.02
C3A G5U C8G G22A | 0.03
C3G A4C G21A U28A C31G U43G | 0.1
C3A G7A A24C G27A C42G C45U | 0.01
C3A G17A U32A | 0.1
C3A C37G C42A | 0.2
C3G A6G C23A U34A | 0.03
C3A C37G G40A U43A | 0.13
C3A G22U U28C U34G C45A | 0.03
C3G A6G A25C C31U G36A G44U | 0.07
C3A U34A G40U | 0.11
C3A G5U G44U | 0.05
C3A G22C G30C C42U G44A C45A | 0.06
